Experimental data taken from patent US20090208481A1, “Proteomic analysis of active multiple sclerosis lesions” (published 2009).

B1: recombinant human aPC-K193E (enzyme)
chain: not shown
B2: recombinant human aPC-L8W (enzyme)
chain: not shown

Molecular target: Protease Activated Receptor 1 (PAR-1) (Homo sapiens (Human), UniProt P25116)
Experiment: cell-based or functional assay

Binder	PAR-1 (relative activity)
B1	1
B2	0.02
